Among all 310,000 compounds or so, about 2,200 (0.71%) showed an effect of 50% or more. Effects have a minus sign here. The list shows a part of the results.
target: human ether-à-go-go-related gene (hERG) potassium channel (human, UniProt Q12809); test: primary screen, population patch clamp on CHO cells stably expressing hERG
Sequence (Q12809 whole entry, looked up): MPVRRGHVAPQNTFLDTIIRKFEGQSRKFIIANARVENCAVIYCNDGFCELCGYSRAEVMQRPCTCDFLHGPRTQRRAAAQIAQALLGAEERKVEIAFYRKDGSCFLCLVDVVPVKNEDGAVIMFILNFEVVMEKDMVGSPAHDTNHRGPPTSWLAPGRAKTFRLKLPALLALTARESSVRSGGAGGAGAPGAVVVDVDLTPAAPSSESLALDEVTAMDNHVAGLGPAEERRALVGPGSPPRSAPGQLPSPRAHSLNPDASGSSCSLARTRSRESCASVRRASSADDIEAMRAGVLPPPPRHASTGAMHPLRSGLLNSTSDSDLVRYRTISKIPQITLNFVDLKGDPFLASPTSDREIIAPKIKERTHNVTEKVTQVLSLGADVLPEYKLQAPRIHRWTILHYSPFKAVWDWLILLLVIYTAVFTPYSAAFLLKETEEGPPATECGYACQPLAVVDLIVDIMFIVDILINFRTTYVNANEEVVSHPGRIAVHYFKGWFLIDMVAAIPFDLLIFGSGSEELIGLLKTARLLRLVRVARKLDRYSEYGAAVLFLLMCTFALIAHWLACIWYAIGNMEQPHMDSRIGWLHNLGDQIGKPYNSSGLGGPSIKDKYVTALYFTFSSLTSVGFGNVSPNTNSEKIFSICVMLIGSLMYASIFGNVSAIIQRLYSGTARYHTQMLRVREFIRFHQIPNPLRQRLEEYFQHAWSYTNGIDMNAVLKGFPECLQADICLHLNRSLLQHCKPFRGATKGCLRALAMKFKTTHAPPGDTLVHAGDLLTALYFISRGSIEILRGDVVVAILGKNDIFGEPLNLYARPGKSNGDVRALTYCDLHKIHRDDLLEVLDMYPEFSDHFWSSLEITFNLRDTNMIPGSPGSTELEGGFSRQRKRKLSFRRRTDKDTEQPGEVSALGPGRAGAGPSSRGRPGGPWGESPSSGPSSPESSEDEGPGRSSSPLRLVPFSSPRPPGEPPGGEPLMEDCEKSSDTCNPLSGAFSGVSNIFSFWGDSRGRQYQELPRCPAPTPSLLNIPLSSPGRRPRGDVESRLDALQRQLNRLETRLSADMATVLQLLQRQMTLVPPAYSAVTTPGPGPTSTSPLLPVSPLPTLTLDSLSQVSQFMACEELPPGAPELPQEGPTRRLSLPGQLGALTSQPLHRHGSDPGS

Compound | hERG current change (%, negative = inhibition) at 1uM [%]
Br.Cc1ccnc(Nc2nc(-c3sc(C)nc3C)cs2)c1 | 10.5
N#Cc1ccc(-c2csc(NNC(=O)c3ccc(Br)cc3)n2)cc1 | 7.82
CCN(c1cccc(C)c1)S(=O)(=O)c1ccc(-c2ccc(=O)[nH]n2)o1 | 12.8
COc1nc2ccccc2nc1N1CCN(C)CC1 | 9.95
CC(=O)C[C@H]1c2cc(C(F)(F)F)ccc2S(=O)(=O)N1c1ccccc1 | 7.9
CCCCNC(=O)C1(c2ccc(OC)cc2)CCOCC1 | 15.2
Cc1cc2nc(CS)[nH]c2cc1C | 8.24
COn1c(C)c(C(C)=O)c2c3no[n+]([O-])c3ccc21 | 13.3
COc1cccc(C2=NN(C(=O)c3cccs3)C(O)(C(F)(F)F)C2)c1 (stereo not drawn) | 3.27
CC(=O)c1cccc(NCC(=O)Nc2cccc(S(=O)(=O)N3CCCCC3)c2)c1 | -6.63
COCCN(C(=O)CSc1nc2ccccc2c(=O)n1CCOC)c1c(N)n(Cc2ccccc2)c(=O)[nH]c1=O | 12.6
CCn1cc(S(=O)(=O)CC(=O)Nc2ccc(C)cc2)c2ccccc21 | 16.4
CCN1CCN(c2nc3c(c(=O)[nH]c(=O)n3C)n2CCCc2ccccc2)CC1 | -81.5
COc1cc(C=O)ccc1OCCCCOc1ccccc1[N+](=O)[O-] | 8.61
CCN(C(=S)NCc1ccccc1)c1cccc2ccccc12 | 11.3
C#CC(=O)N(c1ccc(OC)c(OC)c1)C(C(=O)NC1CCCC1)c1cccs1.Cl (stereo not drawn) | 7.21
Cc1ccccc1COC(=O)CCC1=NS(=O)(=O)c2ccccc2N1 | 11.8
COc1cc(/C=C/C(=O)OCC(=O)Nc2nnc(-c3ccccc3)o2)cc(OC)c1OC | 1.2
O=C(COc1ccc(-n2cnnn2)cc1)Nc1ccccc1Cl | 19
CCC1(CC)NC(=O)N(CC(=O)OCC(=O)c2ccccc2OC)C1=O | 4.8
Cc1cccc(N2CCN(C(=O)NC3CCCCC3)CC2C)c1 (stereo not drawn) | 13.1
COc1ccc(/C=N/NC(=O)CSCC(=O)Nc2ccccc2)cc1 | 12.3
CCOc1ccccc1NC(=O)C(c1ccccc1)N1CCN(CC(=O)N2CCOCC2)CC1 (stereo not drawn) | -79.7
Cc1ccc(S(=O)(=O)N2CCOCC2)cc1NC(=O)COC(=O)CNC(=O)c1ccc(Oc2ccccc2)cc1 | 6.43

Source: paper PMC4336329 (PLoS ONE, 2015)
